Assay results from PubChem BioAssay AID485281 (National Center for Advancing Translational Sciences (NCATS), 2010).
Out of some 350,000 compounds screened, about 260 (0.074%) were called active. The inconclusive results got no clear call from the source; some entries with a clear call stand among them for comparison. The call rests on the fitted dose curve; in most records, active means well fitted inhibition curve with a large enough effect; inconclusive means small, poorly fitted or top-dose-only effect; inactive means no such curve, though single readings can be large or run the other way. Where the call is inconclusive, the potency comes from a doubtful curve fit.

These compounds were tested against Ferritin light chain (Equus caballus) (UniProt P02791) (assay: qHTS Assay for Identification of Novel General Anesthetics). Details: apoferritin/1-aminoanthracene competitive binding, fluorescence; activity change, negative = displacement: at 77.5 µM (top of the series).
Chain of UniProt P02791 (P02791 whole entry, looked up): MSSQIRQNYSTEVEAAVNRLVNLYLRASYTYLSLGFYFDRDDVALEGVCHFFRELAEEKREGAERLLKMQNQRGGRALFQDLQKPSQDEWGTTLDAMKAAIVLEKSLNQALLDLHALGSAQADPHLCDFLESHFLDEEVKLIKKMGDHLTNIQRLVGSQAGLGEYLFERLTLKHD
In short: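 Concentration-response curves derived by four-parameter Hill fitting of normalized fluorescence, where compounds displaced 1-AMA from 10 uM horse apoferritin following a brief 10 min room-temperature incubation; propofol titration acted as positive control.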
Further: nearly all actives have a fitted effect of over 20% in size.
On the % scale 0 is the no-effect control and ±100 the full control effect; potency means the concentration at half of the fitted maximal effect; tags describe the fitted curve by direction and shape.

SMILES | Potency | activity change, negative = displacement
CN(C(=O)CSc1nnc(-c2ccccc2F)o1)C1CCCCC1 | inconclusive: 28.2 µM [inhibitor, partial curve] | 
CC(=O)Nc1ccc(S(=O)(=O)NCCc2ccc(F)cc2)cc1 | inconclusive: 31.6 µM [inhibitor, partial curve] | 
NC(=O)c1c(NC(=O)CSc2nnc(-c3ccco3)n2-c2ccccc2)sc2c1CCC2 | active: 22.4 µM | 
Cc1ccc(NC(=O)C2CCCN(S(=O)(=O)c3cccc4cccnc34)C2)cc1 (configuration not stated) | inconclusive: 12.6 µM [inhibitor, partial curve] | 
O=C(NCCN1CCCCC1)c1ccc(Oc2cc(Cl)cc(Cl)c2)o1 | inconclusive: 22.4 µM [inhibitor, partial curve] | 
Cc1cccc(CS(=O)(=O)c2ncc(Cl)c(C(=O)Nc3c(C)cccc3C)n2)c1 |  | inactive: -17.5%
CCc1c(C)[nH]c(C(=O)OCc2ccccc2)c1C | inconclusive: 15.8 µM [inhibitor, partial curve] | 
O=S(=O)(Nc1cccc2[nH]ncc12)c1cccs1 | inconclusive: 20 µM [inhibitor, partial curve] | 
COc1ccc(C2=N[C@H](c3ccccc3)CO2)cc1 | inconclusive: 28.2 µM [inhibitor, partial curve] | 
c1ccc2c(c1)OCC(c1nnc3sc(-c4ccc5c(c4)OCO5)nn13)O2 (configuration not stated) | inconclusive: 6.31 µM [inhibitor, full curve] | 
CC(=O)Nc1ccc(N=Cc2ccc(OCc3ccccc3)cc2)cc1 | inconclusive: 15.8 µM [inhibitor, partial curve] | 
COc1cc2c(cc1NC(=S)Nc1cccc3ccccc13)oc1ccccc12 |  | inactive: -21.9%
CCC(C)C(NS(=O)(=O)c1ccc(C)cc1)C(=O)Oc1ccc2c3c(c(=O)oc2c1)CCC3 (configuration not stated) | inconclusive: 12.6 µM [inhibitor, partial curve] | 
Cn1ncc(Cl)c1C(=O)N1CCN(c2ccccc2)CC1 |  | inactive: -3.7%
COc1ccc(CNC(=O)C2CCCN(c3nc4ccccc4o3)C2)c(OC)c1 (configuration not stated) | inconclusive: 39.8 µM [inhibitor, partial curve] | 
COc1ccc(-c2nc(CS(=O)CC(=O)NCc3ccc(Cl)cc3)c(C)o2)cc1 (configuration not stated) | inconclusive: 28.2 µM [inhibitor, partial curve] | 
Clc1ccc(Cl)c(-c2ccc(/C=N/c3ncn[nH]3)o2)c1 | inconclusive: 22.4 µM [inhibitor, partial curve] | 
COc1cc(C(=O)c2nccc3cc(OC)c(OC)cc23)c([N+](=O)[O-])cc1OC | inconclusive: 14.1 µM [inhibitor, partial curve] | 
Cc1cccc(C)c1OCC(=O)Nn1c(COc2ccccc2)nc2ccccc2c1=O | inconclusive: 12.6 µM [inhibitor, partial curve, poor fit] | 
O=C(Cc1cccs1)OCC(=O)c1ccco1 | inconclusive: 25.1 µM [inhibitor, partial curve] | 
COc1ccc(NC(=O)CSc2nc(C)c3c(c2C#N)CCCC3)cc1 |  | inactive: -14.2%

SMILES | Potency | activity change, negative = displacement
CCCCCCc1ccc(O)cc1O | inconclusive: 10 µM [inhibitor, partial curve, poor fit] | 
CCc1cccc(CN2CCC(CNC(=O)Nc3ccc(Cl)cc3)CC2)c1 | inconclusive: 11.2 µM [inhibitor, full curve, poor fit] | 
CC(C)c1cnc2c(c1SCC(=O)Nc1cccc(F)c1)c(=O)n(C)c(=O)n2C | inconclusive: 35.5 µM [inhibitor, single point] | 
CC1Cc2ccccc2N1Cc1nc2cc(C(F)(F)F)ccc2c(=O)[nH]1 (configuration not stated) | inconclusive: 25.1 µM [inhibitor, partial curve] | 
O=C(Nc1cccc(F)c1)C1CCN(S(=O)(=O)c2cccc3nsnc23)CC1 |  | inactive: -6.53%
COc1ccccc1C(=O)C1CCCN(C(=O)C2CCCC2)C1 (configuration not stated) | inconclusive: 31.6 µM [inhibitor, partial curve] | 
Cc1cc(Nc2ccc(Cl)cc2)nc(NCc2ccccc2)n1 | inconclusive: 35.5 µM [inhibitor, partial curve] | 
CCC(C)c1ccc(NC(=O)c2cccs2)cc1 (configuration not stated) | inconclusive: 28.2 µM [inhibitor, partial curve] | 
Cc1ccc(CO/N=C\Cc2snc(Sc3ncc(C(F)(F)F)cc3Cl)c2C#N)cc1 | inconclusive: 17.8 µM [inhibitor, partial curve] | 
Cc1cccc(NC2=C(Cl)C(=O)OC2OC(=O)c2ccco2)c1 (configuration not stated) | inconclusive: 50.1 µM [inhibitor, single point] | 
CC(=O)Nc1ccc(C23CC4CC(CC(C4)C2)C3)cc1 | inconclusive: 15.8 µM [inhibitor, partial curve] | 
CC(C)(C)C1CCc2onc(C(=O)Nc3cccnc3)c2C1 (configuration not stated) | inconclusive: 35.5 µM [inhibitor, partial curve] | 
O=C(NCCCC1CCCC1)C1CCC(=O)N(Cc2ccc(Cl)cc2)C1 (configuration not stated) | inconclusive: 11.2 µM [inhibitor, partial curve] | 
Cc1cccc(OCc2nnc(SCC(=O)c3ccccc3)o2)c1 | inconclusive: 20 µM [inhibitor, partial curve] | 
Cc1ccc(C(=O)NCc2ccc3c(c2)OCO3)cc1Cl | inconclusive: 14.1 µM [inhibitor, partial curve] | 
Cc1cc2n(n1)C(c1ccccc1Cl)Nc1ccccc1-2 (configuration not stated) | inconclusive: 11.2 µM [inhibitor, partial curve] | 
CCOC(=O)c1cccc(NS(=O)(=O)c2ccc(-c3cnc(C4CC4)o3)cc2)c1 |  | inactive: -8.65%
COc1ccc(Nc2ccc(S(=O)(=O)N3CCCCCC3)cc2[N+](=O)[O-])cc1 | inconclusive: 17.8 µM [inhibitor, partial curve] | 
O=c1oc2cc(Br)ccc2n1CSC1=NCCS1 | inconclusive: 17.8 µM [inhibitor, partial curve] | 
COc1ccc(C(=O)Nc2ccc(-n3nncc3-c3ccccc3)cc2)cc1OC |  | inactive: -2.67%
Cc1ccc2c(cnn2C(=O)CCC(=O)NCc2cccc(Br)c2)c1 | inconclusive: 22.4 µM [inhibitor, partial curve] | 
